Some of the results follow. The main result of the screen is listed elsewhere. These columns were measured beside it and carry no call. The list favours compounds with an active or inconclusive main result.

This test can be described thus: beta-lactam sensitization of Mtb H37Rv, H37Rv (AID 434955).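 Further: growth measured after seven days incubation then overnight dye step; 0% = bacteria only wells and 100% = bacteria with antibiotic.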 The note with it: M. tuberculosis H37Rv growth with meropenem, percent inhibition; measured here: primary screen without meropenem; at 25 µM.
Consider `Cc1ccc(C(=O)CC(=O)c2ccccc2C)c(O)c1`, for which the inhibition was 83.8%.

`COc1ccc(NS(=O)(=O)c2cc(NC(=O)c3ccccc3F)ccc2N2CCCC2)cc1`: the inhibition is 1%. On to `CC(C)C[C@H](NC(=O)C1(c2ccccc2)CCN(C(=O)OC(C)(C)C)CC1)C(=O)N1CCC[C@H]1C(=O)O`, for which the inhibition is -5.87%. Regarding `FC(F)(F)c1cc(-c2ccco2)nc(NCc2ccccc2)n1`, the inhibition was 7.03%. Turning to `CCOC(=O)C1CCCN(C(=O)Cn2nc(C)n3c(cc4c(OC)cccc43)c2=O)C1` (stereo unspecified), the inhibition was -3.89%. The value for `O=C(CCSc1nnc(-c2ccncc2)o1)Nc1ccccc1Cl` was 38%. Take `CCOc1ccccc1-c1nc(CN2CCC(C(=O)N3CCOCC3)CC2)c(C)o1`: the inhibition was determined as 3.56%. For `O=C(C1CCCO1)N1CCN(C(=S)Nc2ccc(Br)cc2)CC1` (stereo unspecified), the inhibition is 1.27%. The result for `COCCCNC(=O)CS(=O)(=O)Cc1nc(-c2cccc(OC)c2)oc1C` reads -4.52%; that for `CN1c2ccccc2C(=O)NC1c1ccc([N+](=O)[O-])s1` (stereo unspecified), -0.59%; that for `CC1CC1C(=O)Nc1nc(-c2cccs2)c(-c2cccs2)s1` (stereo unspecified), -3.86%. The value for `O=C(COCc1cc(-c2ccc3c(c2)OCO3)on1)N1CCN(c2cccc(C(F)(F)F)c2)CC1` was 8.12%; that for `Cc1cc(=O)[nH]c(N/N=C/c2c(O)n(-c3ccccc3)c(=O)c3ccccc23)n1` was 31.9%; that for `CCn1c(=O)cc(OCC(=O)Nc2ccc3c(c2)OCCO3)c2ccccc21` was -1.9%.

Take `O=c1c(O)c(-c2ccc3c(c2)OCO3)oc2ccccc12`: the inhibition was 35.4%. The value for `Cc1cc(=O)oc(C)c1C(=O)O` was 1.02%; that for `Cc1cc(C)c2oc(=O)cc(CN3CCN(Cc4ccccc4)CC3)c2c1` was 15.7%; that for `O=C(CCCC(=O)N1CCN(c2cccc(Cl)c2)CC1)c1ccccc1` was -1.38%.

In the case of `CCCn1cc(S(=O)(=O)c2ccccc2)c(=O)c2cc(OC)c(OC)cc21`, the inhibition was -1.2%. The value for `COc1cccc(CN2CC(C(=O)NCCSc3nnnn3C)CCC2=O)c1` (stereo unspecified) was -0.14%.

Consider `COc1ccc(C2/C(=C(/O)c3ccccc3)C(=O)C(=O)N2CC(C)O)c(OC)c1` (stereo unspecified), for which the inhibition was -2.77%. The value for `O=C(/C=C/c1ccc(OC(F)F)cc1)OCC(=O)N1CCN(C(=O)c2ccco2)CC1` was 28.2%; that for `CC(C)COC(=O)N1C[C@H](O)C[C@H]1C(=O)Nc1ccc(Cl)cc1` was -6.15%. Regarding `Cc1cccc(OCC(=O)NC(=S)NNC(=O)c2ccncc2)c1`, the inhibition was -1.16%. Take `COc1ccc(NC(=O)c2cccc(N3C(=O)C4C5CCC(C5)C4C3=O)c2)cc1` (stereo unspecified): the inhibition was -6.24%.

For the compound `CCOc1ccccc1C(=O)OCC(=O)Nc1ccc(N2CCCCC2)cc1`, the inhibition is -8.11%. In the case of `Fc1ccc(-c2nnc(Cc3nnc(-c4ccc(F)cc4)o3)o2)cc1`, the inhibition was found to be 0.21%. The value for `COCc1cc(=O)n2[nH]c(C)nc2n1` was 0.12%. Regarding `CC(=O)N1CCCc2cc(S(=O)(=O)NC(C(=O)NC(C)c3ccccc3)C(C)C)ccc21` (stereo unspecified), the inhibition is -7.75%. The result for `Cc1cc(C)c(C(=O)N(C)CC2CCCN(CCc3ccccc3F)C2)o1` (stereo unspecified) reads 7.36%; that for `NC(=O)[C@@H]1CC2(CC(c3cccc(NC(=O)COc4ccc(Cl)cc4)c3)=NO2)CN1C(=O)COc1ccc(Cl)cc1` (stereo partly specified), 15.5%; that for `CCOC(=O)c1ccc(N2CN(C3CCCCC3)CNC2=S)cc1`, 34.8%. The result for `C(=N\NC1=Nc2cccc3cccc1c23)/c1ccccc1` reads 9.94%; that for `CCCc1cc(N2CCCC(C(=O)NCC)C2)n2ncnc2n1` (stereo unspecified), -0.73%; that for `O=C(NCc1nnc(SCC(=O)N2CCCC2)o1)c1ccccc1`, -6.05%.

As to `COc1ccc(NC(=O)NCCN2C(=O)C3C4C=CC(C4)C3C2=O)cc1` (stereo unspecified), the inhibition was -5.48%.

On to `CCc1noc(C)c1C(=O)OCC(=O)Nc1ncc(Cl)cc1Cl`, for which the inhibition is 1.1%.

In the case of `O=C(CN1CCN(c2ccccn2)CC1)Nc1cccc(Cl)c1Cl`, the inhibition was 16.5%. `COc1ccc(N2CCN(C(=O)COCc3cc(-c4ccc5c(c4)OCO5)on3)CC2)cc1`: the inhibition came to 2.66%. In the case of `Cc1cccc(N2C(=NC(=O)c3ccccc3)SC3CS(=O)(=O)CC32)c1` (stereo unspecified), the inhibition turned out to be 5.84%. The value for `COc1ccc(NC(=O)CSc2nnc(Cn3c(=O)sc4ccccc43)n2C)c(OC)c1` was -5.52%. The value for `COc1cccc(C(=O)Nc2nnc(CCS(=O)(=O)c3ccc(C)cc3)s2)c1` was -1.7%.

As for `CC(C)OCC(O)CN1CC2C[C@@H](C1)Cn1c2cccc1=O` (stereo partly specified), the inhibition was -4.95%.

On to `Cc1sc2ncnc(SCC(=O)N3CCCC3=O)c2c1C`, for which the inhibition worked out at 9.37%. The value for `Cc1ccc(C)c(NC(=O)CS(=O)(=O)c2c[nH]c3ccccc23)c1` was -3.63%; that for `CN1CCN(c2oc(-c3ccccc3Cl)nc2S(=O)(=O)c2ccccc2)CC1` was 7.05%; that for `COC(=O)COc1ccc2c(c1)O/C(=C\c1ccco1)C2=O` was 98.6%. The value for `CN(N)C(=S)NCc1ccccc1` was -0.45%.

With `CCN(CCCNC(=O)C1CCN(C(=O)c2cc3sccc3n2C)CC1)Cc1ccccc1`, the inhibition was -0.2%.

For `CCOC(=O)C(=Cc1ccc(F)cc1)C(=O)OCC`, the inhibition turned out to be 27.4%. Consider `Cc1ccccc1N1CCN(Cc2c(C#N)c3ccccc3n2C)CC1`, for which the inhibition is -8.69%. The value for `Cc1cc2oc(=O)cc(CN3CCCCC3C)c2cc1Cl` (stereo unspecified) was -4.81%. The result for `Cc1cc(Cl)ccc1OCCCC(=O)Nc1cccc(-n2cnnn2)c1` reads -6.32%.

Consider `COc1ccc(OC)c(C2=NOC(C(=O)N3CCC4(CC3)OCCO4)C2)c1` (stereo unspecified), for which the inhibition came out at 0.54%. The value for `Cc1ccc(CC(=O)Nc2nnc(-c3ccc(F)cc3)o2)c(C)c1` was 55.7%. The result for `Cc1ccc2c(CC(=O)OCc3nc(N)nc(Nc4ccccc4C)n3)coc2c1` reads 17.7%.

Regarding `O=c1cc(-c2ccccc2)[nH]c2nc3ccccc3n12`, the inhibition is 30.1%. As to `O=C(NCc1ccc(F)cc1)c1cc(S(=O)(=O)N2CCOCC2)ccc1F`, the inhibition turned out to be 3.08%. The result for `CCOc1ccc(-c2cccc(NC(=O)COc3ccc(Cl)cc3)c2)nn1` reads 4.51%; that for `O=C(OCC(=O)N1CCN(C(=O)c2ccco2)CC1)c1cc(-c2ccco2)nc2ccccc12`, 6.06%. `CC(=O)Nc1nonc1-c1nc2ccccc2n1CCC(C)C`: the inhibition is 34.2%. The value for `COCCn1c(=NC(=O)CCS(=O)(=O)c2ccccc2)sc2ccccc21` was -2.08%; that for `COc1ccccc1NC(=O)CN(Cc1ccco1)C(=O)c1cccs1` was -10.4%; that for `CC1(C)C2CC=C(/C=N/NC(=O)c3ccccc3O)C1C2` (stereo unspecified) was 17%. The value for `O=C(CCN1C(=O)C2C3CCC(C3)C2C1=O)Nc1cccc(Cl)c1` (stereo unspecified) was 10.3%; that for `O=C(Cc1cccs1)N(Cc1cccs1)C1(C(=O)NC2CCCC2)CCCCC1` was 8.88%; that for `Cc1cc2nnc(SCc3ccccc3)n2c(N)n1` was -1.32%. `O=C(NCc1ccccc1)C1CCN(c2nc(-c3ccccc3)nc3c2CCC3)CC1`: the inhibition stood at 0.47%. The result for `CCCCN=C1CC(C)(C)CC(=O)/C1=C(/O)CCC` reads -2.63%; that for `O=C(NCC1COCCO1)c1ccc2nc(Cc3cccc(Cl)c3)oc2c1` (stereo unspecified), 3%. The value for `CC(C)c1nc(SCC(=O)NC2CCCC2)c2c(=O)n(C)c(=O)n(C)c2n1` was 8.51%. The result for `CCN(CC)c1ccc(NC(=O)Cn2ncc3c(C)n(Cc4ccccc4F)c(C)c3c2=O)c(C)c1` reads -9.67%.

Regarding `O=C(N/N=C/c1ccco1)c1cccc([N+](=O)[O-])c1`, the inhibition is -1.22%. Take `CCOc1nnnc2c1sc1nc(N3CCOCC3)c3c(c12)CCCC3`: the inhibition turned out to be 4.77%. The result for `CC(C)(C)OC(=O)N[C@@H](Cc1ccccc1)C(=O)N1CCC(C(=O)NCC(=O)O)CC1` reads -2.02%; that for `CCC(=O)c1ccc(OCc2ccc(C(=O)OC)cc2)c(OC)c1`, 54.6%; that for `CC(C)CC(=O)Nc1nnc(SCC(=O)NCC2CCCO2)s1` (stereo unspecified), 3.28%.

Turning to `O=Cc1cccc(OCc2cccc3ccccc23)c1`, the inhibition was determined as 26.4%. As to `CC(C)c1ccc(Cc2nnc(NCCCO)[nH]c2=O)cc1`, the inhibition was -1.24%.

Take `COc1cc(OC)cc(C(=O)N(CN2CCCC2=O)c2ccccc2OC)c1`: the inhibition came out at 1.27%. The value for `COC(=O)c1c(NC(=O)C2c3ccccc3Oc3ccccc32)sc(C)c1C` was 14.8%; that for `CC(OC(=O)c1ccc([N+](=O)[O-])o1)C(=O)NC1CCCCC1C` (stereo unspecified) was 44.5%.

For the compound `C=CCNC(=O)CCNS(=O)(=O)c1ccc(Br)cc1`, the inhibition is 1.6%. The value for `O=c1[nH]c(/C=C/c2ccccn2)nc2ccccc12` was -1.73%; that for `O=C(COC(=O)c1ccc(O)cc1O)c1ccc2c(c1)OCO2` was 91.8%. The result for `O=C(NCCCN=C1NS(=O)(=O)c2ccccc21)c1ccc(F)cc1` reads -15.4%; that for `CC(=O)Nc1ccc(C(=O)N(C2=NC(C)CS2)c2ccc(Cl)cc2)cc1` (stereo unspecified), 6.05%.

In the case of `CCCCNC(=O)c1onc(CSc2ccccc2CC)c1C(=O)O`, the inhibition is 30.6%. The value for `CN(C)c1ccc(/C=C(\NC(=O)c2ccccc2)C(=O)NCCCN2CCOCC2)cc1` was 0.97%; that for `NS(=O)(=O)c1ccc(CCNC(=O)C2Cc3ccccc3CN2C(=O)c2ccco2)cc1` (stereo unspecified) was -8.08%; that for `COc1ccc(CONS(=O)(=O)c2ccc(NC(C)=O)cc2)cc1Cl` was 2.76%. The value for `CC1=NN(c2ccccc2)C(=O)C1C(=O)c1ccc(Cl)cc1` (stereo unspecified) was 77.7%; that for `CC(C)C(=O)N(c1cc2sc(=O)oc2c2ccccc12)S(=O)(=O)c1cccs1` was 9.06%; that for `O=C(NN1C(=O)c2cc(Br)ccc2NC1c1ccccc1Cl)c1ccncc1` (stereo unspecified) was 38.6%.

Take `CN(CC1CCCCO1)C(=O)c1cc(COc2ccc(F)cc2Cl)on1` (stereo unspecified): the inhibition was 1.44%. The value for `COc1ccc(-c2nc(CSCC(=O)NCCC3=CCCCC3)c(C)o2)cc1OC` was -0.74%; that for `Cc1cc(C)n(-c2ccc(NC(=O)C3CCCCN3C(=O)c3sccc3C)cc2)n1` (stereo unspecified) was 1.17%; that for `CCOC(=O)c1ccc(S(=O)(=O)N2CCC(N3CCCCC3)CC2)cc1` was -4.62%. As for `CN(C)CCOc1ccc2c(c1)Sc1ccccc1CC2=O`, the inhibition was -1.92%. The result for `CC1=CC=CC2=NC(=O)CC(C)(C(=O)N(CC(=O)NC(C)C)C3CCCC3)N12` (stereo unspecified) reads -2.71%; that for `COC(=O)c1ccccc1NC(=O)c1noc2c1CC(C(C)(C)C)CC2` (stereo unspecified), -7.03%; that for `Cc1nc2ncnn2c(C)c1CCC(=O)NCc1ccc2c(c1)OCO2`, 0.86%.

In the case of `NC(=O)CSc1nnc(NC(=O)C23CC4CC(CC(C4)C2)C3)s1`, the inhibition stood at 62.1%. The result for `COc1ccc(S(=O)(=O)Oc2ccccc2C(=S)N2CCOCC2)cc1` reads 2.54%; that for `CCC(Sc1nc2cc(OC)c(OC)cc2c(=O)n1Cc1ccco1)C(=O)NCCOC` (stereo unspecified), -17.8%; that for `CC1CCCC(NC(=O)COC(=O)c2cccc(NS(=O)(=O)/C=C/c3ccccc3)c2)C1C` (stereo unspecified), 44.3%.

Source of the values: PubChem BioAssay AID434955 (Southern Research Specialized Biocontainment Screening …, 2010).
